Results: PubChem BioAssay AID1963576 (National Center for Advancing Translational Sciences (NCATS), 2024)
Screen size: about 46,000 compounds; about 60 (0.1%) were called active. Inconclusive results (about 3%) are left out. Calls follow the shape of the dose curve; as a rule, active = well fitted inhibition curve with a large enough effect; inconclusive = small, poorly fitted or top-dose-only effect; inactive = no such curve, though single readings can be large or run the other way. The list shows a part of the results.

assay: Primary qHTS assay for Inhibitors of ovarian cancer metastasis using an organotypic tumor microenvironment (TME) model.; also: nearly all actives have a fitted effect of over 65% in size;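 as to activity change, negative = inhibition: plate controls were DMSO wells for no effect and tomatine positive control wells for full effect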; settings: SKOV3ip1-GFP adhesion/invasion on 3D omental model, fluorescence; series mostly up to 45.8 µM; activity change, negative = inhibition: at the top concentration
In short: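 Primary human omental fibroblast/mesothelial 3D culture pre-formed 48 h. SKOV3ip1-GFP cells added with compounds (0.36-46 umol/L), incubated 2 h RT/16 h 37 C, fixed; GFP cells quantified at 488/509 nm.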

Activity change, negative = inhibition, inactive:
CCCN(CCC)C(=O)c1nn(C)c2c1CSc1ccccc1-2 6.16%
Cc1ccc(NC(=O)Cn2nc(-c3ccccc3)nc(Cc3ccccc3)c2=O)cc1 -7.11%
Cc1cccc(NC(=O)c2c(NC(=O)c3ccco3)sc3c2CCC(C)C3)c1 (configuration not stated) 8.44%
Cc1c2cnn(-c3ccccc3)c(=O)c2c(C)n1C(C)C(=O)NCc1cccc(Br)c1 (configuration not stated) -8.76%
CC(C(=O)Nc1ccccc1)n1nnc2sc3c(c2c1=O)CCCC3 (configuration not stated) -28.4%
Cc1ccc(NC(=O)CSc2nc3ccccc3n2CC(=O)N(C)C2CCCCC2)cc1C -1.53%
CCOc1ccc2nc(N3CCCC(C(=O)NCCc4ccc(C)cc4)C3)sc2c1 (configuration not stated) -9.14%
CCc1nc2nc(C)c(NS(=O)(=O)c3ccc(F)c(C)c3)c(=O)n2[nH]1 -11.6%
Cc1nc(-c2cccc(F)c2)sc1CCNC(=O)C(=O)Nc1ccc2c(c1)OCCO2 -4.92%
Cc1ccccc1C(=O)Nc1ccccc1-c1nc(-c2ccccc2)no1 -2.55%
Cc1ccc(NC(=O)C2CCCN2S(=O)(=O)c2ccc3nc(-c4ccccc4)[nH]c3c2)cc1C (configuration not stated) -0.941%
Cc1cc(C(=O)NCc2ccccc2)c2c(C)nn(-c3cccc(Cl)c3C)c2n1 -15.5%
Cc1cccc(NC(=O)Nc2nnc(N3CCCC3)s2)c1 -6.34%
Cc1ccc(-n2cnc3cc(C(=O)NCCC4=CCCCC4)ccc32)cc1Cl -7.31%
CCc1ccccc1N(CC)C(=O)Cn1nc(Cc2ccncc2)c2ccccc2c1=O -10%
O=C(NCCS(=O)(=O)N1CCN(c2ccccc2F)CC1)C1CC(=O)N(c2ccc(F)cc2)C1 (configuration not stated) 6.5%
Cc1ccc(S(=O)(=O)C(CNS(=O)(=O)c2ccc(F)c(C)c2)c2cccs2)cc1 (configuration not stated) 14.5%
O=C(CCc1nc(-c2cccs2)no1)Nc1ccc([N+](=O)[O-])cc1 0.367%
Cc1cccc(NC(=O)COc2ccc3oc4c(c3c2)CCCC4)c1 -4.06%
Cc1ccc(OCC(=O)Nc2cccc3ccc(C)nc23)c(C)c1 11%
O=C(CCC1N=C2c3ccccc3N=C(SCC(=O)NCCc3ccccc3)N2C1=O)NCc1ccc(F)cc1 (configuration not stated) 14.7%
CCC(NC(=O)Nc1cccc(C)c1)c1c(-n2cccc2)sc2c1CCN(C)C2 (configuration not stated) -21.7%
Cc1ccc(CNC(=O)CSCc2nc(-c3cccc(C)c3)oc2C)cc1 4.75%
Cn1c(/C(C#N)=C/c2ccc(C(F)(F)F)cc2)nc2ccccc21 -2.88%
CCOc1ccccc1NC(=O)Cn1nc(N2CCN(c3ccccc3)CC2)ccc1=O -5.32%
Cc1ccn2c(Nc3ccc4c(c3)OCCO4)c(-c3ccc(N(C)C)cc3)nc2c1 -9.06%
CCOc1ccc(-c2nnc(SCC(=O)N(CC)c3cccc(C)c3)o2)cc1 2.87%
CCOc1ccc(OCC)c(NC(=O)C2CCCN(S(=O)(=O)c3ccc(C)cc3)C2)c1 (configuration not stated) -16.3%
Cc1sc2ncn(CC(=O)N3CCN(c4ccccc4)CC3)c(=O)c2c1S(=O)(=O)N1CCC(C)CC1 -0.751%
CCOC(=O)c1ccccc1NC(=O)c1nn(-c2ccc(OC)c(Cl)c2)c(=O)c2c1c1ccccc1n2C -1.01%
CCc1ccc2occ(CC(=O)Nc3ccc(C)c(C)c3)c2c1 -5.59%
CCCCCCCCOc1ccccc1C(=O)Nc1ccc(C(=O)OCC[N+](C)(CC)CC)cc1 -3.89%
COCCCNC(=O)C1CCN(c2nc3ccc(Cl)cc3[nH]2)CC1 2.39%
Cc1cccc(NC(=O)N2CC=C(c3c[nH]c4ccccc34)CC2)c1C 2.98%
O=C(c1cc2cc3ccc(Cl)cc3nc2o1)N1CCN(c2cccc(Cl)c2)CC1 68.1%
CCOc1ccc(OCC)c(NC(=O)c2cc(-c3cccs3)nc3ccccc23)c1 0.308%
CCOc1ccc2c(c1)c(=O)c(S(=O)(=O)c1ccc(CC)cc1)cn2Cc1cccc(Cl)c1 -0.112%
CN1CCN2c3ccccc3Cc3ccccc3C2C1 (configuration not stated) 2.07%
CCCSc1ncnc2c1c(-c1ccccc1)cn2-c1ccccc1OC -3.7%
COc1ccc(-c2cn3nc(SCC(=O)Nc4cc(C)cc(C)c4)ccc3n2)cc1 -0.857%

outcome, inactive:
COc1ccc(-n2nc(-c3ccc(C)cc3)c3cnc4cc(F)c(F)cc4c32)cc1
COc1cccc(CNC(=O)c2ccc3c(c2)nc2n3CCC(C)C2)c1 (configuration not stated)
COc1cccc(NC(=O)Cn2c(=O)n(CCc3cccc(C)c3)c(=O)c3ccccc32)c1
CCOCCCn1c(=N)c(C(=O)NCc2ccccc2)cc2c(=O)n3ccccc3nc21
Cc1cccc(Cn2c(=O)n(Cc3ccccc3)c(=O)c3sc4ccccc4c32)c1
CCCCn1c(CNC(=O)C23CC4CC(CC(C4)C2)C3)nnc1SCC(=O)Nc1ccc(F)cc1
COc1ccc(CNC(=O)C(=O)NCC(c2cccs2)S(=O)(=O)c2cccs2)cc1 (configuration not stated)
Cc1cn2c(=O)c(S(=O)(=O)NCc3ccc(F)cc3)c(C)nc2s1
O=C(NCc1ccccc1Cl)c1ccc(-n2cnc3cccnc32)cc1
COc1ccc(-c2c(C)nn3c(N4CCN(c5cc(Cl)ccc5C)CC4)cc(C)nc23)cc1OC
COc1ccccc1CNC(=O)CSc1cc(C)[nH]c(=O)n1
O=C(Cn1c(=O)n(-c2ccccc2Cl)c(=O)c2sc3ccccc3c21)NC1CCCC1
CCCN(CCC)C(=O)Cn1c(=O)n(-c2ccc(Cl)c(Cl)c2)c(=O)c2c(C)c(C(=O)N(C)C)sc21
Cc1ccc(CNC(=O)CCCc2nnc3n(CC(C)C)c(=O)c4sccc4n23)cc1
CC1=C(c2ccc(C(C)C)cc2)S(=O)(=O)NC1=NCc1ccc(Cl)cc1
CCN(CC)C(=O)C1CCCN(c2ncnc3c2c(-c2ccccc2)cn3-c2cccc(C)c2)C1 (configuration not stated)
O=C(CN1C(=O)CSc2ccc(S(=O)(=O)N3CCCC3)cc21)NCc1ccc(F)cc1Cl
O=c1c2nncn2ccn1-c1ccc(F)c(F)c1
CCCCOC(=O)c1ccc(Nc2nc3ccc(C(=O)c4ccccc4)cc3n3cnnc23)cc1
COc1ccc(CNC(=O)c2ccc(CS(=O)(=O)c3ccc(Br)cc3)o2)cc1
Cc1ccc(Cl)cc1Nc1nn2c(=O)c3ccc(C(=O)NC4CCCCC4)cc3nc2s1
COc1ccc(OC)c(NC(=O)CS(=O)(=O)Cc2nc(-c3ccc(C)cc3)oc2C)c1
